Measured values published in PubChem BioAssay AID588795 (National Center for Advancing Translational Sciences (NCATS), 2011).
Where “and” joins values, the source holds several entries; their conditions need not be identical. Equal entries are not always repeated. Out of some 390,000 compounds screened, about 1,400 (0.36%) were called active. Inconclusive means that the source gave no clear call. Such entries were picked first, then a sample of the others. Calls come from the whole dose curve; as a rule, active = well fitted inhibition curve with a large enough effect; inconclusive = small, poorly fitted or top-dose-only effect; inactive = no such curve, though single readings can be large or run the other way. Where the call is inconclusive, the potency comes from a doubtful curve fit.

These molecules were tested against Flap endonuclease 1 (Homo sapiens) (UniProt P39748) (assay: qHTS Assay for the Inhibitors of Human Flap endonuclease 1 (FEN1).). Details: Recombinant FEN1 flap cleavage, fluorescence, 15 min; series mostly up to 114 µM.
Sequence of UniProt P39748 (P39748 whole entry, looked up): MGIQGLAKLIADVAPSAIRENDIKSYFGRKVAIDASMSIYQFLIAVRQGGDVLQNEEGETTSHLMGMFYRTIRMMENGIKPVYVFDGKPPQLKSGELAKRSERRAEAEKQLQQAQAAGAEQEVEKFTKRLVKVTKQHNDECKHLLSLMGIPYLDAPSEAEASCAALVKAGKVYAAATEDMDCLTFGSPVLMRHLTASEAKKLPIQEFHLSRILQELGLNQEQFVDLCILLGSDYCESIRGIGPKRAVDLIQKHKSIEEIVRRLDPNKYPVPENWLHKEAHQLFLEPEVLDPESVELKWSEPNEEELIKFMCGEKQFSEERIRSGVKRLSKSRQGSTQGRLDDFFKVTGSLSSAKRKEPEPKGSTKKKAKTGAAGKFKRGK
Summary of the method: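 FEN1 at 10 nM preincubated with compounds 15 min at room temperature, then flap DNA substrate added at 50 nM final. Signal read at 0 and 15 min; concentration-response fitted with four-parameter Hill equation.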
Note: nearly all actives have a fitted effect of over 65% in size.
Potency is the fitted concentration of half-maximal effect; tags give direction and shape of the fitted curve.

Compound	Potency
COc1ccc(OC)c(-c2csc(NC(=O)C3=COCCO3)n2)c1	inconclusive: 28.2 µM [inhibitor, partial curve, poor fit]
CC1(C)CC(=O)C(C(c2ccc(F)cc2)C2C(=O)CC(C)(C)CC2=O)C(=O)C1	inactive
COc1cccc(-c2c(NC(C)=O)n(C)c3ccccc3c2=O)c1	inconclusive: 89.1 µM [inhibitor, single point]
Cc1ccccc1-n1c(=O)cc(N2CCc3ccccc32)[nH]c1=O	inconclusive: 31.6 µM [inhibitor, partial curve, poor fit]
c1ccc(-c2csc(Nc3ccccn3)n2)cc1	inconclusive: 79.4 µM [inhibitor, partial curve, poor fit]
COc1ccc(CC(=O)NCc2ccc3c(c2)CCN3C(=O)c2ccc(Cl)cc2)cc1OC	inconclusive: 89.1 µM [inhibitor, partial curve, poor fit]
COC(=O)[C@H](CC(C)C)NC(=O)Cn1cnc2c(NCc3ccccc3)ncnc21	inactive
COc1cc(/C=C2\S/C(=N/S(=O)(=O)c3ccccc3)NC2=O)c([N+](=O)[O-])cc1OC	inconclusive: 89.1 µM [inhibitor, partial curve, poor fit]
Cc1ccc(NC(=S)NC(=O)c2cccs2)cc1F	inactive
N#Cc1ccccc1CN1C(=O)S/C(=C/c2cccn2-c2cccc(C(=O)O)c2)C1=O	inconclusive: 70.8 µM [inhibitor, partial curve, poor fit]
CC(=O)Nc1ccc2c(O)cc(S(=O)(=O)O)cc2c1	inconclusive: 44.7 µM [inhibitor, partial curve]
O=Cc1ccc(O)c(O)c1	inactive
O=C1c2ccccc2C(=O)c2c1ccc1c(=O)n(C3CCCCC3)[nH]c21	inconclusive: 89.1 µM [inhibitor, single point]
O=C1ON=C(c2ccccc2)/C1=C/c1ccco1	inconclusive: 89.1 µM [inhibitor, single point]
O=c1[nH][nH]c(C(F)(F)F)c1C=Nc1cccc(Cl)c1	inactive
COc1ccccc1-c1nnc(SCCOc2ccccc2C)o1	inconclusive: 50.1 µM [inhibitor, partial curve, poor fit]
CC(C)c1ccc(S(=O)(=O)c2cnc(SCC(=O)Nc3cccc(C(F)(F)F)c3)nc2N)cc1	inconclusive: 22.4 µM [inhibitor, partial curve, poor fit]
COc1ccc(OC)c2sc(NC(=O)c3cccc(N4C(=O)CCC4=O)c3)nc12	inconclusive: 50.1 µM [inhibitor, partial curve]
Oc1ccc(N=Nc2ccccc2-c2nn[nH]n2)c(O)c1	inconclusive: 14.1 µM [inhibitor, full curve, poor fit]
COc1cc(=O)[nH]c(SC(C)C(=O)Nc2nc3c(s2)CCCC3)n1 (configuration not stated)	inactive
Cc1ccc(C)c(NC(=S)NNC(=S)Nc2ccc(C(C)C)cc2)c1	inconclusive: 89.1 µM [inhibitor, partial curve, poor fit]
CCc1cccc(NC(=O)CCc2c(C)nc3c(c2C)c(=O)n(C)c(=O)n3C)c1	inactive
COc1ccc(Cc2c[nH]c(=O)[nH]c2=O)cc1	inconclusive: 89.1 µM [inhibitor, partial curve, poor fit]

Compound	Potency
Cc1c(N=Nc2c(-c3ccc([N+](=O)[O-])cc3)[nH]n(C(N)=S)c2=O)cccc1[N+](=O)[O-]	inconclusive: 56.2 µM [inhibitor, partial curve, poor fit]
Cc1ccc(C)c(NC(=O)CCn2nc(C)c3c(C)n(-c4ccccc4)nc3c2=O)c1	inactive
Cc1c(Cl)cnc(NC(=O)COC(=O)C2CC2)c1Cl	inactive
CC(=O)Oc1c(-c2ccc(Br)o2)oc2ccccc2c1=O	inconclusive: 22.4 µM [inhibitor, full curve]
Nn1cnnc1N/N=C/c1ccc(Cl)cc1Cl	inconclusive: 50.1 µM [inhibitor, partial curve, poor fit]
COc1ccc(C(c2c(C)[nH][nH]c2=O)c2c(C)[nH][nH]c2=O)cc1Br	inactive
CC(=O)Cn1c2ccccc2n2nc(CCC(=O)O)c(=O)nc12	inactive
Cc1ccc(C(=O)O)cc1-c1ccc(C=C2C(=O)c3ccccc3C2=O)o1	inconclusive: 56.2 µM [inhibitor, partial curve, poor fit]
COc1cc(/C=C2\S/C(=N/S(=O)(=O)Cc3ccccc3)NC2=O)c([N+](=O)[O-])cc1OC	inconclusive: 79.4 µM [inhibitor, partial curve, poor fit]
CCOC(=O)c1sc(=S)n(-c2ccccc2)c1N(C(C)=O)C(C)=O	inconclusive: 50.1 µM [inhibitor, partial curve, poor fit]
COc1ccc(NC(=O)CN(C)C(=O)c2oc3c(ccc4ccccc43)c2C)cc1	inconclusive: 44.7 µM [inhibitor, partial curve, poor fit]
O=C(CC1NCCNC1=O)Nc1ccccc1F (configuration not stated)	inactive
COC(=O)c1ccc(C(=O)OC)c(NC(=O)N2CC3CCCN3c3ccccc32)c1 (configuration not stated)	inactive
CCOC(=O)c1ccc(N=c2ssnc2Cl)cc1	inconclusive: 89.1 µM [inhibitor, single point]
COc1ccc(C2CC(=O)c3c(C)nc(N4CCN(C=O)CC4)nc3C2)c(OC)c1 (configuration not stated)	inactive
COc1cc2cnc(-c3ccccc3)c(-c3cccc(C(F)(F)F)c3)c2cc1OC	inconclusive: 25.1 µM [inhibitor, full curve, poor fit]
Cc1ccc2c(c1)CCC2=O	inconclusive: 100 µM [inhibitor, single point]
CCC(=O)OCCNc1cc(SCCC(=O)OC)c2nonc2c1[N+](=O)[O-]	inconclusive: 31.6 µM [inhibitor, partial curve, poor fit] and inconclusive: 8.91 µM [inhibitor, full curve]
CS(=O)(=O)N1CCC(n2c(C(F)(F)F)nc3cccnc32)CC1	inactive
O=C(Nc1ccc2c(c1)OCCO2)c1cccc2nc3ccccc3nc12	inconclusive: 20 µM [inhibitor, partial curve, poor fit]
COc1ccccc1NC(=O)Cc1ccc(-c2ccccc2)cc1	inconclusive: 89.1 µM [inhibitor, partial curve, poor fit]
C/[N+]([O-])=C\CC(=O)c1ccc(-c2ccccc2)cc1	inactive
C[n+]1cccc2cccc([O-])c21	inconclusive: 39.8 µM [inhibitor, partial curve, poor fit]

Compound	Potency
O=C(O)c1ccccc1N=Nc1c(O)[nH]c2ccc([N+](=O)[O-])cc12	inconclusive: 89.1 µM [inhibitor, single point]
Cc1cc(C(=O)COC(=O)CC(NC(N)=O)c2ccc(Cl)cc2)c(C)n1C (configuration not stated)	inactive
COc1ccc(/C=N/Nc2nnc(Cc3ccccc3)c(=O)[nH]2)cc1OC	inconclusive: 79.4 µM [inhibitor, partial curve, poor fit]
COc1cccc(NC(=O)C(=O)NCCc2csc(-c3ccc(C)cc3)n2)c1	inactive
CC(=C/c1ccco1)/C=N/NC(=O)c1ccncc1	inactive
CCOC(=O)C1C(=O)C=C(c2ccc(C)cc2)CC1c1ccccc1 (configuration not stated)	inactive
COc1ccc(/C=C(\C#N)c2c[nH]c3ccccc23)cc1	inconclusive: 89.1 µM [inhibitor, single point]
CC(C)(C)OC(=O)[C@H](Cc1ccccc1)NC(=O)c1nc[nH]c1C(=O)N[C@@H](Cc1ccccc1)C(=O)OC(C)(C)C	inconclusive: 44.7 µM [inhibitor, partial curve, poor fit]
Cc1cccc(NC(=O)c2c(NC(=O)c3ccccc3)sc3c2CCCC3)c1	inconclusive: 100 µM [inhibitor, single point]
COC(=O)c1c(C)sc(-c2c(-c3ccc4c(c3)OCCO4)[nH]c3[nH]c(=O)[nH]c(=O)c23)c1O	inactive
COc1ccc(NC(=O)C2CCCN(S(=O)(=O)c3ccc4c(c3)CCCN4C(C)=O)C2)cc1 (configuration not stated)	inactive
CC1=C(C(=O)OC(C)C)C(c2ccc(C)o2)C(C(=O)OC(C)C)=C(C)N1	inconclusive: 79.4 µM [inhibitor, partial curve, poor fit]
CCCCN(C)CCCNC(=O)c1cc(Nc2ccc(OC)c(OC)c2)nc2ccccc12	inconclusive: 50.1 µM [inhibitor, partial curve, poor fit]
O=c1cc(-c2ccc(O)c(O)c2)oc2cc(O)c(C3OC(CO)C(O)C(O)C3O)c(O)c12 (configuration not stated)	inconclusive: 14.1 µM [inhibitor, full curve, poor fit]
COc1ccc(NC(=S)NC(=O)/C=C/c2ccc(F)cc2)cc1	inactive
Cc1cc(C(=O)O)ccc1-c1ccc(/C=C2\NC(=O)N(Cc3ccc(F)cc3)C2=O)o1	inconclusive: 39.8 µM [inhibitor, partial curve]
Cc1ccccc1-n1c(=O)c2c3c(sc2n2cnnc12)CCCC3	inactive
CC1OC(Oc2c(-c3cc(O)c(O)c(O)c3)oc3cc(O)cc(O)c3c2=O)C(O)C(O)C1O (configuration not stated)	active: 2.24 µM
Cn1c(=O)c(-[n+]2ccccc2)c([O-])c2ccccc21	inconclusive: 79.4 µM [inhibitor, single point]
CCOc1cc(/C=C(\C#N)C(=O)Nc2ccccn2)ccc1O	inactive
Cc1cc(/C=C2\Sc3ccccc3N2C)cc(C)[n+]1CC1CCCO1 (configuration not stated)	active: 50.1 µM
